Test results reported in article PMC4624786.
No constants are given. Whether binding was seen depends on the method and setting. In cells and extracts the contact can be indirect. Some binding calls cover weakened binding; strength is not graded here. For some assays here: Sequences can lack the tags named with a protein.

By UniProt entry, the sequences of proteins in these tests, tags left out. Where a name states a change or a piece, a line headed by the entry shows the natural chain unless it says otherwise. Residues count along the entry.
UniProt O70161: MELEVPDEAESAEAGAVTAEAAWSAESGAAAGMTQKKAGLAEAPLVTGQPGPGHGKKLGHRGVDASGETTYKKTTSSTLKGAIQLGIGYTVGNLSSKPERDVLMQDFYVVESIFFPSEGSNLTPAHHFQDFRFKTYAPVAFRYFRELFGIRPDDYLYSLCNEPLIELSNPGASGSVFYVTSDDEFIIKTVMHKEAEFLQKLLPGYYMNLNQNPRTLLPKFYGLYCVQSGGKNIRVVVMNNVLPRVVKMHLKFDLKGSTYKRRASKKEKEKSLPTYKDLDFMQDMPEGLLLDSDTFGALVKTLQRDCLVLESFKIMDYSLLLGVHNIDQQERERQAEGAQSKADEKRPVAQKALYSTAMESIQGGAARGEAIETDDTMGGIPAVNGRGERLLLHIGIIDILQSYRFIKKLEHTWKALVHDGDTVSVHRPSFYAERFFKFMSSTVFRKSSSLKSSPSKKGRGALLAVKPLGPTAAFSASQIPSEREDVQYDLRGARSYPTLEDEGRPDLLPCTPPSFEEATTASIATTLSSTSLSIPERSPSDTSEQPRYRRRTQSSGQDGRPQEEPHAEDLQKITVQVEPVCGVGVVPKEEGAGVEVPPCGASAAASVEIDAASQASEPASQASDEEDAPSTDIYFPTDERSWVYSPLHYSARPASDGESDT
UniProt P70182: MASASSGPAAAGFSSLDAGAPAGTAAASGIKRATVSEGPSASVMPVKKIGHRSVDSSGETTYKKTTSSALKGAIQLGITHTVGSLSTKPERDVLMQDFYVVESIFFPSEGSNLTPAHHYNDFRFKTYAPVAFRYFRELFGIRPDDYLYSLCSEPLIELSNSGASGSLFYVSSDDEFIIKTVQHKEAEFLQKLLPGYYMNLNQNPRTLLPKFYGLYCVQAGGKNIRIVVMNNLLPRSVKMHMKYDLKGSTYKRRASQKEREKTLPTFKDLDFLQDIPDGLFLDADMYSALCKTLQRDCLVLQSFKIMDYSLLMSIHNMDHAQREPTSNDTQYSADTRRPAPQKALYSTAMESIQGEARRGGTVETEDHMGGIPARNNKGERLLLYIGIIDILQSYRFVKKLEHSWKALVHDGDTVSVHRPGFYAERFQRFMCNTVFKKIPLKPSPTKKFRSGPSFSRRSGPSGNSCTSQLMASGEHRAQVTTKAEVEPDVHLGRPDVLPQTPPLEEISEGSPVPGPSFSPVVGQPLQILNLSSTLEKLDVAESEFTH
myc-PIPKIα-(1–438): residues 1-438 of P70182
UniProt P70181: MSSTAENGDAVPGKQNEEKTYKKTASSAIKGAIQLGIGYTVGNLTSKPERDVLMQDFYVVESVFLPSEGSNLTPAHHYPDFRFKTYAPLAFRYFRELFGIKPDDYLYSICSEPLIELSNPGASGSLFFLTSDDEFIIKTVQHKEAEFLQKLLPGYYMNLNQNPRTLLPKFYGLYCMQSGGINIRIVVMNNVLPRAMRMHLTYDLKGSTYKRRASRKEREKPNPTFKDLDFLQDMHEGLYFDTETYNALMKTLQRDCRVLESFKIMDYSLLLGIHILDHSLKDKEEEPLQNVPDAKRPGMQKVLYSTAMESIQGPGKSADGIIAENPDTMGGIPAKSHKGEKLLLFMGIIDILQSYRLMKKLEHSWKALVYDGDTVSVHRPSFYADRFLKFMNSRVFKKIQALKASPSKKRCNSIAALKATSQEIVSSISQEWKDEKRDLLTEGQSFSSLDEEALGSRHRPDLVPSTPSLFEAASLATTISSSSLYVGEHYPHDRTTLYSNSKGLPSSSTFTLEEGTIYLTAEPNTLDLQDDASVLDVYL
UniProt Q80SW1: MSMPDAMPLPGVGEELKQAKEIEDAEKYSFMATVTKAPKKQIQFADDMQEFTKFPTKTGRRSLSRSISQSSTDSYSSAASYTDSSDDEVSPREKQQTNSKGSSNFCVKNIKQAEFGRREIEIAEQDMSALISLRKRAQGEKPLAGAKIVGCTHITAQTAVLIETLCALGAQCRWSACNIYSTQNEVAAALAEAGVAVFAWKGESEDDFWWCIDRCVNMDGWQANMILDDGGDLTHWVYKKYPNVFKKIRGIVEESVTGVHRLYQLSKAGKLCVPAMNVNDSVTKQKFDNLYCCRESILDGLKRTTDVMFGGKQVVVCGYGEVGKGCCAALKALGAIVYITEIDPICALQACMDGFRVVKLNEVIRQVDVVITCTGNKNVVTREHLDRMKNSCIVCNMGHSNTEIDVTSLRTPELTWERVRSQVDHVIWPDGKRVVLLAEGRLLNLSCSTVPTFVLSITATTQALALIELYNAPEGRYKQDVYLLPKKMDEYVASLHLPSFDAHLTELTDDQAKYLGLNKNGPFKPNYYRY

Tests used:
Experiment in all cases: co-IP; COS-7 cells co-transfected with HA-IRBIT and myc-PIPK constructs; lysis buffer 10 mM Hepes pH 7.4, 100 mM NaCl, 2 mM EDTA, 1% Nonidet P-40; precipitated with anti-HA or anti-myc antibody and protein G-Sepharose at 4°C; Western blot
[1] = molecular target: myc-tagged phosphatidylinositol phosphate kinase type Iγ (mouse) (UniProt O70161)
[2] = molecular target: myc-PIPKIα-(1–438) (mouse) (UniProt P70182)
[3] = molecular target: myc-tagged phosphatidylinositol phosphate kinase type Iα (mouse) (UniProt P70182)
[4] = molecular target: T1, myc-tagged phosphatidylinositol phosphate kinase type IIγ (rat) (UniProt O88370)
T1 sequence: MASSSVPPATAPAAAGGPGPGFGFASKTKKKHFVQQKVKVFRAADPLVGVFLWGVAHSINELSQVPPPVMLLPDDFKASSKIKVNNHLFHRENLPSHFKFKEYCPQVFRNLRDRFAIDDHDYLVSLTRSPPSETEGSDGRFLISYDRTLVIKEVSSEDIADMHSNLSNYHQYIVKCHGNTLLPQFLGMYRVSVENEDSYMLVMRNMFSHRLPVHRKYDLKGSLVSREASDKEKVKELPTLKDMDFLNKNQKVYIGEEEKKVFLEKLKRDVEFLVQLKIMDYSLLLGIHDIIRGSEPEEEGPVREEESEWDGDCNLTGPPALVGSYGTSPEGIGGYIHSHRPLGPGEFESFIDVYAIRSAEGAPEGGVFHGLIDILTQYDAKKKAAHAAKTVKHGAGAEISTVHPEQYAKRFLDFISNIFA

myc-PIPKIα D389A (mouse) = myc-PIPKIα D389A (mouse) (UniProt P70182)
myc-PIPKIIα D273A (rat) = molecular target: T2, myc-PIPKIIα D273A (rat) (UniProt Q9R0I8)
T2 sequence: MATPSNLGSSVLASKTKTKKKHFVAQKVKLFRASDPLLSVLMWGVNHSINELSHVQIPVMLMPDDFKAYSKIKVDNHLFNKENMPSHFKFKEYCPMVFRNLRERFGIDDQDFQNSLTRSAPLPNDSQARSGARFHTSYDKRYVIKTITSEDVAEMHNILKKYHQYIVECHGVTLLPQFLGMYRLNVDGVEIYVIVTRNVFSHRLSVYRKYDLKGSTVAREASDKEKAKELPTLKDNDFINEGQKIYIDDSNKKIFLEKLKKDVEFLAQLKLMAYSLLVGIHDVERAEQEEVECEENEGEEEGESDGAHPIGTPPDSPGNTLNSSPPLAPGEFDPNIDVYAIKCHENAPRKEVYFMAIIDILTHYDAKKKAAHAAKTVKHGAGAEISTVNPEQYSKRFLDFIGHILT

[5] = molecular target: T3, myc-tagged phosphatidylinositol phosphate kinase type IIβ (rat) (UniProt O88377)
T3 sequence: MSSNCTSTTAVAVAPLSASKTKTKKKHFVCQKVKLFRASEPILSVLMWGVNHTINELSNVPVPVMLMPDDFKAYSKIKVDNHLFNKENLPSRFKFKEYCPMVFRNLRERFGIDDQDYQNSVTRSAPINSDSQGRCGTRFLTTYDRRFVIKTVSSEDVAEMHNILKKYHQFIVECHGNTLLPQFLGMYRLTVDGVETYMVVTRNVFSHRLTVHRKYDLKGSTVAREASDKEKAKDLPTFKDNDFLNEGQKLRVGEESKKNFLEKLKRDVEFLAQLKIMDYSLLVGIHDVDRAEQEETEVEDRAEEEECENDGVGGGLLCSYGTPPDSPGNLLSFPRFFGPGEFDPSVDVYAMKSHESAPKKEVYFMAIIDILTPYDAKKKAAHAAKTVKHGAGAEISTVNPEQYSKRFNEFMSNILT

[6] = molecular target: myc-tagged phosphatidylinositol phosphate kinase type Iβ (mouse) (UniProt P70181)

Measured: binding

Hemagglutinin (HA)-tagged IRBIT (IP3R-binding protein released with inositol 1,4,5-trisphosphate) (from UniProt Q80SW1 1-530)
binds: [1] | [2] | [3] | [4] | myc-PIPKIα D389A (mouse) | myc-PIPKIIα D273A (rat) | [5] | [6]
